We go through 40 sequences from the supplement of paper PMC7826260.

This is one part of the list. One pool of 16,384 single-stranded DNAs met each Rep nickase domain in vitro at 3 µM enzyme and 37 °C for 1 h; the strands have 90 letters, of which the middle is given. A value is the log2 ratio of uncut reads to the pool without enzyme; more negative means more cut, near 0 not cut, and no call is made. Shares of all reads are compared; where an enzyme cuts many sequences, the uncut ones exceed 0.

The test system of one assay is T1, Rep nickase domain of chickpea chlorotic dwarf virus.
T1 sequence (residues 1-124 of Rep, tag left off): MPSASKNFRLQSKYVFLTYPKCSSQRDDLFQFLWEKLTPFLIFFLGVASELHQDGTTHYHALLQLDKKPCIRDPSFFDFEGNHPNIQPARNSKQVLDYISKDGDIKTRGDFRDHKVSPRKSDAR
The experiment in a line: uncleaved DNA left, log2 of reads against the no-enzyme library (log2 ratio); higher = less cleavage (more negative = more Rep cleavage of the k-mer); sequences stand for … in CTCGTCCG…ACCGGAGA
The protocol: (§1)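 A pool of 90-nt single-stranded DNAs with seven random bases just before the constant AC of the nick site (name = the seven bases) was cut by 3 µM recombinant His6-SUMO-tagged Rep nickase domain (300 nM DNA, 50 mM HEPES pH 8.0, 50 mM NaCl, 1 mM MnCl2, 1 h, 37 °C, three replicates). Uncut DNA was amplified and sequenced.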
CTGGGAG: the “uncleaved DNA left (log2)” value is -0.181.
For TGATATT, the “uncleaved DNA left (log2)” value was -2.87.
Still for that read-out and setting: for TAAATCG the value was -1.28; for GGCCGCC, 0.778; for CCCACGA, -0.338.
With TTGATTA, the “uncleaved DNA left (log2)” value was -0.75.
For AAAATGG, the “uncleaved DNA left (log2)” value is -0.159.
For TGTAAGT, the “uncleaved DNA left (log2)” value was determined as 0.0269.
AGGATCT: the “uncleaved DNA left (log2)” value worked out at 0.0758.
Same read-out and setting: for ATGATAA the value was -0.198.
On to GGGTATA, for which the “uncleaved DNA left (log2)” value is 1.92.
Take ATGAGAC: the “uncleaved DNA left (log2)” value turned out to be 0.781.
On to AGGAAAG, for which the “uncleaved DNA left (log2)” value is -0.296.
As to CATCCCA, the “uncleaved DNA left (log2)” value was -1.87.
ATGTAGA: the “uncleaved DNA left (log2)” value was -0.456.
As to GGTTCAA, the “uncleaved DNA left (log2)” value came out at 1.24.
As to TTACACA, the “uncleaved DNA left (log2)” value was -1.66.
GGTGCTC: the “uncleaved DNA left (log2)” value was 1.22.
With AGTCCGC, the “uncleaved DNA left (log2)” value is -0.213.
With AAGCACA, the “uncleaved DNA left (log2)” value is -1.26.
For TTAATGG, the “uncleaved DNA left (log2)” value came to 1.05.
Regarding AACAATT, the “uncleaved DNA left (log2)” value is -3.32.
On to GGCCCAA, for which the “uncleaved DNA left (log2)” value is 1.38.
As for CGGCCGG, the “uncleaved DNA left (log2)” value worked out at 0.744.
As to AGAACCT, the “uncleaved DNA left (log2)” value worked out at 1.46.
As for AATACAG, the “uncleaved DNA left (log2)” value was -1.07.
As to GCTAGGT, the “uncleaved DNA left (log2)” value was 0.904.
As to GATTATC, the “uncleaved DNA left (log2)” value was 0.605.
The same measure, in the same setting: for TCCACCC the value was -0.702; for GAGGAGC, 1.35.
As for AGTCGTG, the “uncleaved DNA left (log2)” value is -0.196.
As to GCATAGT, the “uncleaved DNA left (log2)” value is -1.02.
Take TCCGTGT: the “uncleaved DNA left (log2)” value was -0.181.
As for GTGACAG, the “uncleaved DNA left (log2)” value is 1.8.
Take AACTTGA: the “uncleaved DNA left (log2)” value was -0.684.
As for CTCTCTG, the “uncleaved DNA left (log2)” value was -0.31.
Still for that read-out and setting: for GAATTCA the value was -0.826; for ACGGGGA, 0.945.
For CCACTAG, the “uncleaved DNA left (log2)” value was -0.516.
For CTCCCAT, the “uncleaved DNA left (log2)” value was -0.658.

For a further assay, the system named is T2, Rep nickase domain of faba bean necrotic yellows virus.
T2 sequence (residues 1-98 of Rep, tag left off): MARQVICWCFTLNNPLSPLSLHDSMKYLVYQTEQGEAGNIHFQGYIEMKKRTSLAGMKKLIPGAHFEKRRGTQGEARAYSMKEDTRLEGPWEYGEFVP
Described as above. As for the experimental part:
as §1
For CTGGGAG, the “uncleaved DNA left (log2)” value is -0.0592.
Same read-out and setting: for TGATATT the value was -0.363; for TAAATCG, 0.099.
On the same count and under the same terms, the value for GGCCGCC was 0.0219; that for CCCACGA was 0.153.
In the case of TTGATTA, the “uncleaved DNA left (log2)” value was 0.0783.
Turning to AAAATGG, the “uncleaved DNA left (log2)” value is 0.0481.
As to TGTAAGT, the “uncleaved DNA left (log2)” value is -0.1.
In the case of AGGATCT, the “uncleaved DNA left (log2)” value is -0.00883.
The same measure, in the same setting: the value for ATGATAA was 0.0229; that for GGGTATA was -0.0173.
As to ATGAGAC, the “uncleaved DNA left (log2)” value is -0.0198.
As to AGGAAAG, the “uncleaved DNA left (log2)” value is -0.0851.
For the sequence CATCCCA, the “uncleaved DNA left (log2)” value is 0.0501.
Take ATGTAGA: the “uncleaved DNA left (log2)” value is -0.0295.
Turning to GGTTCAA, the “uncleaved DNA left (log2)” value amounted to 0.0123.
As for TTACACA, the “uncleaved DNA left (log2)” value is -0.019.
As to GGTGCTC, the “uncleaved DNA left (log2)” value is -0.0481.
As for AGTCCGC, the “uncleaved DNA left (log2)” value is -0.0861.
On to AAGCACA, for which the “uncleaved DNA left (log2)” value was 0.0576.
On the same count and under the same terms, for TTAATGG the value was 0.15; for AACAATT, -0.0776.
GGCCCAA: the “uncleaved DNA left (log2)” value stood at 0.188.
Consider CGGCCGG, for which the “uncleaved DNA left (log2)” value was 0.0527.
AGAACCT: the “uncleaved DNA left (log2)” value was determined as 0.0555.
With AATACAG, the “uncleaved DNA left (log2)” value was determined as 0.0148.
On to GCTAGGT, for which the “uncleaved DNA left (log2)” value is -0.0657.
In the case of GATTATC, the “uncleaved DNA left (log2)” value is 0.02.
TCCACCC: the “uncleaved DNA left (log2)” value is -0.0467.
For the sequence GAGGAGC, the “uncleaved DNA left (log2)” value turned out to be 0.105.
As to AGTCGTG, the “uncleaved DNA left (log2)” value was -0.0513.
For GCATAGT, the “uncleaved DNA left (log2)” value was -0.0624.
With TCCGTGT, the “uncleaved DNA left (log2)” value was -0.0417.
With GTGACAG, the “uncleaved DNA left (log2)” value was -0.0367.
For AACTTGA, the “uncleaved DNA left (log2)” value is -0.0137.
With CTCTCTG, the “uncleaved DNA left (log2)” value was -0.049.
Consider GAATTCA, for which the “uncleaved DNA left (log2)” value is -0.0625.
In the case of ACGGGGA, the “uncleaved DNA left (log2)” value was -0.00468.
As to CCACTAG, the “uncleaved DNA left (log2)” value was -0.0167.
Take CTCCCAT: the “uncleaved DNA left (log2)” value is -0.00957.

In another assay the test system is T3, Rep nickase domain of maize striate mosaic virus.
T3 sequence (residues 1-117 of Rep, tag left off): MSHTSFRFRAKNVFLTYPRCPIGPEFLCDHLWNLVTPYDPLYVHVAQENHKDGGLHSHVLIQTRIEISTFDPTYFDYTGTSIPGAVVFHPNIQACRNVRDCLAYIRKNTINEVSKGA
The description is as above. As for the experimental part: as §1
Turning to CTGGGAG, the “uncleaved DNA left (log2)” value is -0.836.
As for TGATATT, the “uncleaved DNA left (log2)” value was -1.14.
As for TAAATCG, the “uncleaved DNA left (log2)” value was -1.33.
Consider GGCCGCC, for which the “uncleaved DNA left (log2)” value came out at 0.939.
For the sequence CCCACGA, the “uncleaved DNA left (log2)” value is -0.741.
For the sequence TTGATTA, the “uncleaved DNA left (log2)” value is -0.142.
As for AAAATGG, the “uncleaved DNA left (log2)” value was -0.945.
Consider TGTAAGT, for which the “uncleaved DNA left (log2)” value is -0.521.
Regarding AGGATCT, the “uncleaved DNA left (log2)” value is 1.1.
The same measure, in the same setting: for ATGATAA the value was -0.348; for GGGTATA, 2.17; for ATGAGAC, 0.0979.
Same read-out and setting: for AGGAAAG the value was -0.863; for CATCCCA, -0.434; for ATGTAGA, -1.05.
As for GGTTCAA, the “uncleaved DNA left (log2)” value was 1.91.
On to TTACACA, for which the “uncleaved DNA left (log2)” value was -0.142.
On to GGTGCTC, for which the “uncleaved DNA left (log2)” value stood at 1.85.
Same read-out and setting: the value for AGTCCGC was -0.787.
Same read-out and setting: the value for AAGCACA was 0.387.
Regarding TTAATGG, the “uncleaved DNA left (log2)” value amounted to 1.04.
As for AACAATT, the “uncleaved DNA left (log2)” value was -0.899.
On to GGCCCAA, for which the “uncleaved DNA left (log2)” value is 1.94.
Turning to CGGCCGG, the “uncleaved DNA left (log2)” value was found to be 0.606.
Turning to AGAACCT, the “uncleaved DNA left (log2)” value was found to be 2.
The same measure, in the same setting: the value for AATACAG was -1.07; that for GCTAGGT was 1.18; that for GATTATC was 0.89.
On to TCCACCC, for which the “uncleaved DNA left (log2)” value was -0.269.
In the case of GAGGAGC, the “uncleaved DNA left (log2)” value turned out to be 1.26.
Take AGTCGTG: the “uncleaved DNA left (log2)” value was -0.536.
Same read-out and setting: for GCATAGT the value was -0.79.
Consider TCCGTGT, for which the “uncleaved DNA left (log2)” value was -0.264.
As for GTGACAG, the “uncleaved DNA left (log2)” value was 2.07.
Regarding AACTTGA, the “uncleaved DNA left (log2)” value is -0.803.
Same read-out and setting: for CTCTCTG the value was -0.669; for GAATTCA, 0.501.
On the same count and under the same terms, the value for ACGGGGA was 1.58; that for CCACTAG was -1.
CTCCCAT: the “uncleaved DNA left (log2)” value was -0.407.
